Results reported in PubChem BioAssay (Tox21).
The inconclusive results got no clear call from the source; some entries with a clear call stand among them for comparison. For some assays here: Potencies of inconclusive entries are left out as doubtful fits. The source made the active and inactive calls. Unless noted, calls come from the whole dose curve; as a rule, active = well fitted curve in the direction sought with a large enough effect in the repeat runs; inconclusive = weak or mixed curves; inactive = no such curve, though single readings can be large; an effect the other way counts as inactive or inconclusive.

Experiments:
[1] = qHTS assay for small molecule agonists of the p53 signaling pathway - cell viability (AID 651633; calls by dose curve;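 note: p53RE-bla HCT reporter cells with a stable beta-lactamase p53 reporter; nearly all actives have a fitted effect of over 30% in size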); details: p53RE-bla HCT-116 viability, ATP luminescence, 16 h; series mostly up to 83.3 µM
Outline: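 Viability counter-read: CellTiter-Glo luminescence (30 min, room temperature) in the same p53RE-bla plates. These plates had been exposed to compounds for 16 h at 37 C.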

[2] = target: Glucocorticoid receptor (Homo sapiens) (UniProt P04150); assay: qHTS assay to identify small molecule agonists of the glucocorticoid receptor (GR) signaling pathway (AID 720691; active = well fitted activation curve with a large enough effect in the signal ratio in the repeat runs, not every such curve was filed as active; inconclusive = weak or mixed curves, or effect the other way; inactive = no such curve, though single readings can be large or run the other way; the % refers to the signal ratio; note: potency is the fitted concentration of half-maximal effect); details: GR-bla HeLa, beta-lactamase reporter ratio, 18 h; activation: at 62.4 µM (top of the series) unless noted
Outline: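 Agonist mode in a HeLa line carrying a GRE-controlled beta-lactamase reporter. Compounds act for 18 h at 37 C before a 2 h room-temperature FRET substrate step and fluorescence reading.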

[3] = qHTS assay for small molecules that induce genotoxicity in human embryonic kidney cells expressing luciferase-tagged ATAD5 - cell viability (AID 651634; calls by dose curve; note: potency is the fitted concentration of half-maximal effect; nearly all actives have a fitted effect of over 25% in size); details: HEK293T ATAD5-luc cells viability, CellTiter-Fluor, 15.5 h; series mostly up to 83.3 µM
Outline: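 Cytotoxicity counterscreen in HEK293T cells bearing an ATAD5-luciferase reporter: live-cell protease activity measured by CellTiter-Fluor fluorescence after 15.5 hr compound exposure.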

[4] = qHTS RealTime-Glo MT Cell Viability Assay in HepG2 cells - 16 hour (AID 1224885); details: RealTime-Glo luminescence; series mostly up to 76.8 µM; note: nearly all actives have a fitted effect of over 50% in size
Outline: (§1)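 Cells + NanoLuc/prosubstrate dispensed (600 cells/well) → 5 h at 37 C/5% CO2 → compounds in DMSO transferred → 40 h incubation at 37 C, luminescence read at 0, 8, 16, 24, 32, 40 h.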

[5] = qHTS assay to identify small molecule agonists of the androgen receptor (AR) signaling pathway in the presence of an antagonist - cell viability counter screen (AID 1259379); details: MDA-kb2 viability, CellTiter-Fluor, 16 h; series mostly up to 92.4 µM; note: potency is the fitted concentration of half-maximal effect; nearly all actives have a fitted effect of over 25% in size
Outline: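 Fluorescence from CellTiter-Fluor, added after 15 hr and read 1 hr later, gave cell viability. Cells were MDA-kb2 exposed to compounds (15 concentrations) in the presence of 3.0uM nilutamide at 37C, 0% CO2.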

[6] = target: Acetylcholinesterase (Homo sapiens) (UniProt P22303); assay: Acetylcholinesterase (AChE) small molecule antagonists: colormetric cell-based qHTS assay (AID 1347395; calls by dose curve; note: nearly all actives have a fitted effect of over 30% in size); details: SH-SY5Y cells AChE activity, colorimetric (Ellman); series mostly up to 115 µM
Outline: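 Colorimetric readout: DTNB quantifies thiocholine from acetylthiocholine hydrolysed by endogenous AChE of SH-SY5Y cells (2,000/well, plated overnight). Compound pretreatment 30 min, substrate incubation 90 min, both 37 C.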

[7] = qHTS RealTime-Glo MT Cell Viability Assay in HepG2 cells - 24 hour (AID 1224867); details: RealTime-Glo luminescence; series mostly up to 76.8 µM; note: potency is the fitted concentration of half-maximal effect; nearly all actives have a fitted effect of over 50% in size
Outline: as §1

[8] = qHTS RealTime-Glo MT Cell Viability Assay in HepG2 cells - 40 hour (AID 1224870); details: RealTime-Glo luminescence; series mostly up to 76.8 µM; note: potency is the fitted concentration of half-maximal effect; nearly all actives have a fitted effect of over 50% in size
Outline: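 Real-time viability: cells seeded at 600 per well together with NanoLuc and cell-permeant prosubstrate, compounds added after 5 h incubation. Luminescence tracked at 0, 8, 16, 24, 32 and 40 h of exposure.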

[9] = A CellTox Green Cytotoxicity Assay to monitor cytotoxicity in HEK293 cells - 8 hour (AID 1224884); details: CellTox Green fluorescence; series mostly up to 76.8 µM; note: potency is the fitted concentration of half-maximal effect; nearly all actives have a fitted effect of over 35% in size
Outline: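 Cytotoxicity was tracked continuously in HEK293 cells by a DNA-binding dye excluded from viable cells. Compounds were transferred in DMSO 5 h after seeding; fluorescence was recorded at intervals up to 40 h.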

[10] = A CellTox Green Cytotoxicity Assay to monitor cytotoxicity in HepG2 cells - 8 hour (AID 1224890); details: CellTox Green fluorescence; series mostly up to 76.8 µM; note: potency is the fitted concentration of half-maximal effect; nearly all actives have a fitted effect of over 45% in size
Outline: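 Real-time, homogeneous cytotoxicity readout: dead-cell DNA staining by CellTox Green in HepG2 monolayers, fluorescence measured at timed intervals up to 40 h of continuous compound exposure.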

[11] = qHTS assay to identify small molecule antagonists of the androgen receptor (AR) signaling pathway using the MDA cell line in the presence of 0.5 nM R1881 - cell viability counter screen (AID 1259242); details: MDA-kb2 viability, CellTiter-Fluor protease fluorescence, 16 h; series mostly up to 92.4 µM; note: potency is the fitted concentration of half-maximal effect; nearly all actives have a fitted effect of over 45% in size
Outline: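 Cytotoxicity toward MDA-kb2 cells is measured by CellTiter-Fluor live-cell protease fluorescence after 16 hr compound exposure at 37C in the presence of 0.5 nM R1881 stimulator.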

[12] = qHTS assay to identify small molecule antagonists of the TGF-beta/Smad signaling pathway - cell viability counter screen (AID 1346824); details: SBE-bla HEK293T viability, CellTiter-Glo luminescence; series mostly up to 76.8 µM; note: potency is the fitted concentration of half-maximal effect; nearly all actives have a fitted effect of over 50% in size
Outline: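 Cytotoxicity counter-screen run in the same wells as the beta-lactamase Smad reporter read: CellTiter-Glo luminescence after 30 min at room temperature. HEK 293T SBE-bla cells had 5 hr compound exposure at 37 C with TGF-beta1 (0.25 ng/mL stock).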

[13] = Caspase-3/7 induction in HepG2 cells by small molecules, qHTS assay (AID 1346978); details: HepG2 caspase-3/7 activation, Caspase-Glo luminescence, 17 h; series mostly up to 92.4 µM; note: nearly all actives have a fitted effect of over 15% in size; note: potency is the fitted concentration of half-maximal effect
Outline: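 Caspase-3/7 induction was measured by Caspase-Glo 3/7 luminescence (30 min, room temperature) after a 17 hr compound exposure of wild-type HepG2 cells seeded at 2,000 per well and pre-incubated 5 hr.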

[14] = Caspase-3/7 induction in CHO-K1 cells by small molecules, qHTS assay (AID 1346980); details: CHO-K1 caspase-3/7 induction, Caspase-Glo luminescence, 17 h; series mostly up to 92.4 µM; note: potency is the fitted concentration of half-maximal effect; nearly all actives have a fitted effect of over 15% in size
Outline: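 Luminescent Caspase-Glo 3/7 read (30min, room temperature) quantified apoptosis induction. Cells were wild-type CHO-K1, treated with compound for 17hr at 37 C and 5% CO2.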

[15] = qHTS assay to identify small molecule HDAC inhibitors (AID 1259364); details: HCT-116 HDAC-Glo I/II luminescence, 2 h; series mostly up to 92.4 µM; note: potency is the fitted concentration of half-maximal effect; nearly all actives have a fitted effect of over 45% in size
Outline: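 Homogeneous cell-based luminescent assay of endogenous class I/II HDAC activity; HCT-116 cells, 2 h compound exposure, 30 min HDAC-Glo development at RT.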
Tags give direction and shape of the fitted curve or compound fluorescence and quenching.

UniProt P04150, sequence (P04150 whole entry, looked up): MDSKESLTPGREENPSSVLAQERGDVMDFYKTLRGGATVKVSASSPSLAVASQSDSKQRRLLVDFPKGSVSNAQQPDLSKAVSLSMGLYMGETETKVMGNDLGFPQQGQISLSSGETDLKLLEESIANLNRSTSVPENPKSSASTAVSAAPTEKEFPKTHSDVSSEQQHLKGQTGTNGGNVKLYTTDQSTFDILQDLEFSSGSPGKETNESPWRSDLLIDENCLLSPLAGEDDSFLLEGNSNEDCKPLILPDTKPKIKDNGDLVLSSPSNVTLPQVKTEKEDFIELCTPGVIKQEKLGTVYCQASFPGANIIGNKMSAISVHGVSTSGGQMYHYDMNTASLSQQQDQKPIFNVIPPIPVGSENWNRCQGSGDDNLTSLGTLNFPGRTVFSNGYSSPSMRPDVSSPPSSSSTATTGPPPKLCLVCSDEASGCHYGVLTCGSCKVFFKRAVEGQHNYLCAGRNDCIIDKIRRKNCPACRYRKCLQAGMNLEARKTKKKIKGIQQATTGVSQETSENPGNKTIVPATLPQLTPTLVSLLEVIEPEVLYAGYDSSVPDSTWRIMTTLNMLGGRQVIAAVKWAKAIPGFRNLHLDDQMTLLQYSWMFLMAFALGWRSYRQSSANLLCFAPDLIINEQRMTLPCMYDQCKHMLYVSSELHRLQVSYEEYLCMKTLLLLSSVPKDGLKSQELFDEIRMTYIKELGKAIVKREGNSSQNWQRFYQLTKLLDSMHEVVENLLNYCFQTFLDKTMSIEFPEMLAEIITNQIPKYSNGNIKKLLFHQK
UniProt P22303, sequence (P22303 whole entry, looked up): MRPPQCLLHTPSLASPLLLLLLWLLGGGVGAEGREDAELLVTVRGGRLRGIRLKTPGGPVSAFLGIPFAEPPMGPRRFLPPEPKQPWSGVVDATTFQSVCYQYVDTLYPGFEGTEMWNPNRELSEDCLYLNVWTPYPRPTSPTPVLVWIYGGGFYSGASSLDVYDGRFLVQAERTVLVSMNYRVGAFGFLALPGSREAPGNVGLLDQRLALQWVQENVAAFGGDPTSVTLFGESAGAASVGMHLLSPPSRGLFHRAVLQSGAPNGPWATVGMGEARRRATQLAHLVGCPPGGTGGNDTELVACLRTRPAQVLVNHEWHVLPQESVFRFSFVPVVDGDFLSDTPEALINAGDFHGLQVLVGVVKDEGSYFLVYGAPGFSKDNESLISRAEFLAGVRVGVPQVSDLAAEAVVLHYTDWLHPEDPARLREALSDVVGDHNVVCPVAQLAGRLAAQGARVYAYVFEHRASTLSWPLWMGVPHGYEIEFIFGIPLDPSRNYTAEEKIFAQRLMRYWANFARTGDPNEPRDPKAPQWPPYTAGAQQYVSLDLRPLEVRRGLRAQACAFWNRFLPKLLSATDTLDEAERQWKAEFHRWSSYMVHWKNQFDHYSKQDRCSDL

For CC(=O)NNc1ccccc1, the Potency [1] was “inactive” and the Potency [2] was inconclusive [rising, full curve, poor fit].

In the case of CSSC, the Potency [3] is reported as inconclusive [falling, partial curve, poor fit] and the Potency [4] is reported as “inactive”.

With CCNS(=O)(=O)C(F)(F)C(F)(F)C(F)(F)C(F)(F)C(F)(F)C(F)(F)C(F)(F)C(F)(F)F the Potency [3] was inconclusive [falling, partial curve], the Potency [5] was inconclusive [cytotoxic, partial curve, poor fit] and the Potency [6] was “inactive”.

For CC(C)(c1ccc(O)c(-c2ccccc2)c1)c1ccc(O)c(-c2ccccc2)c1, the Potency [7] was active: 49 µM, the Potency [8] was inconclusive [falling, single point] and the Potency [9] was inconclusive [activator, single point]. For the same compound, the Potency [10] was inconclusive [activator, single point], the Potency [11] was inconclusive [cytotoxic, single point] and the Potency [12] was inconclusive [cytotoxic, single point]. For the same compound, the Potency [13] was inconclusive [activator, full curve, poor fit] and the Potency [14] was inconclusive [activator, single point].

With Nc1ccc([N+](=O)[O-])cc1Cl the Potency [11] was inconclusive [cytotoxic, partial curve, poor fit] and the Potency [5] was inconclusive [cytotoxic, partial curve].

With C#CCOC(=O)/C=C(C)/C=C/CC(C)CCCC(C)C (stereo not given) the Potency [2] was “inactive”.

With CC1CCCCC1NC(=O)Nc1ccccc1 (stereo not given) the Potency [15] was inconclusive [inhibitor, partial curve].

In the case of CC(C=O)Cc1ccc2c(c1)OCO2 (stereo not given), the Potency [13] is reported as “inactive”.
